Reference: the supplement of paper PMC4604168 (melanoma cell lines)
Some of the results follow. Many values rest on one well or one pass, so single values are uncertain.

Key:
Assay in all cases: cell count relative to DMSO control; melanoma cells; higher = more viable cells
Settings in all cases: library dose: standard library concentration; 72 h
G361 = test system: G361
IPC-298 = test system: IPC-298
IST-MEL1 = test system: IST-MEL1
LB2518-MEL = test system: LB2518-MEL
LOXIMVI = test system: LOXIMVI
MEL-HO = test system: MEL-HO
MZ2-MEL = test system: MZ2-MEL
MeWo = test system: MeWo
RPMI7951 = test system: RPMI7951
RVH-421 = test system: RVH-421
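Note: cells treated in 1,536-well plates, then fixed and DAPI-stained, with nuclei counted from automated high-throughput microscope images.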

SMILES	cell count (G361)	cell count (IPC-298)	cell count (IST-MEL1)	cell count (LB2518-MEL)	cell count (LOXIMVI)	cell count (MEL-HO)	cell count (MZ2-MEL)	cell count (MeWo)	cell count (RPMI7951)	cell count (RVH-421)
NC1(c2ccc(-c3nc4ccn5c(=O)[nH]nc5c4cc3-c3ccccc3)cc2)CCC1 + CC(C)CCN1c2nc(Nc3cc(F)c(O)c(F)c3)ncc2N(C)C(=O)C1C [BID1870] (first compound 2 µM, partner dose 1 µM)	58.6%	71.4%	79.3%	105%	53.8%	55.3%	92.1%	66.7%	89.3%	75%
CN(c1ncccc1CNc1nc(Nc2ccc3c(c2)CC(=O)N3)ncc1C(F)(F)F)S(C)(=O)=O + O=C(Nc1ccccc1)c1cc([N+](=O)[O-])ccc1Cl [GW9662] (first compound 0.4 µM, partner dose 10 µM)	84.8%	119%	107%	79.8%	72.5%	89.7%	92.2%	83.5%	66.6%	63.4%
CCCS(=O)(=O)Nc1ccc(F)c(C(=O)c2c[nH]c3ncc(Cl)cc23)c1F + C=CCNC1=C2C[C@@H](C)C[C@H](OC)[C@H](O)[C@@H](C)/C=C(\C)[C@H](OC(N)=O)[C@@H](OC)/C=C\C=C(/C)C(=O)NC(=CC1=O)C2=O [Tanespimycin] (first compound 0.4 µM, partner dose 0.01 µM)	64.4%	63.4%	32.6%	94.9%	93.9%	77.6%	86.4%	94.5%	34.7%	76%
CS(=O)(=O)c1ccc(C(=O)Nc2ccc(Cl)c(-c3ccccn3)c2)c(Cl)c1 [vismodegib] + CN(C)S(=O)(=O)c1ccc2c(c1)/C(=C/c1cc3c([nH]1)CCCC3)C(=O)N2 [SU6656] (first compound 5 µM, partner dose 2 µM)	58.9%	101%	76.7%	81.2%	101%	84.6%	102%	84.1%	61.4%	84.1%
CCCS(=O)(=O)Nc1ccc(F)c(C(=O)c2c[nH]c3ncc(Cl)cc23)c1F + Oc1nc(-c2ccc(C(F)(F)F)cc2)nc2c1CSCC2 [XAV939] (first compound 0.4 µM, partner dose 10 µM)	71.7%	88.3%	94%	93.2%	85.7%	73.3%	84.3%	87.3%	76.3%	84.9%
C=C(c1ccc(C(=O)O)cc1)c1cc2c(cc1C)C(C)(C)CCC2(C)C [Bexarotene] + C=CCn1c(=O)c2cnc(Nc3ccc(N4CCN(C)CC4)cc3)nc2n1-c1cccc(C(C)(C)O)n1 [MK1775] (first compound 10 µM, partner dose 0.1 µM)	83.7%	82%	77.8%	68%	81.5%	94.8%	124%	79.4%	59.5%	62.7%
NC1(c2ccc(-c3nc4ccn5c(=O)[nH]nc5c4cc3-c3ccccc3)cc2)CCC1 + CC(C)(C)c1cnc(CSc2cnc(NC(=O)C3CCNCC3)s2)o1 [SNS-032] (first compound 2 µM, partner dose 0.05 µM)	87.5%	108%	78.7%	55.7%	64%	79.7%	99.9%	76%	37.9%	85.8%
CS(=O)(=O)c1ccc(C(=O)Nc2ccc(Cl)c(-c3ccccn3)c2)c(Cl)c1 [vismodegib] + OCCn1cc(-c2cnc3nnn(Cc4ccc5ncccc5c4)c3n2)cn1 [PF04217903] (first compound 5 µM, partner dose 5 µM)	108%	99.3%	102%	108%	73.5%	105%	117%	98.5%	117%	98.7%
NC1(c2ccc(-c3nc4ccn5c(=O)[nH]nc5c4cc3-c3ccccc3)cc2)CCC1 + Cn1cc(/C=C2\C(=O)Nc3cccnc32)c2ccccc21 [GW441756] (first compound 2 µM, partner dose 2 µM)	83.1%	76.1%	86.3%	77.8%	83.5%	63.2%	87.9%	63%	93.4%	78.8%
CCCS(=O)(=O)Nc1ccc(F)c(C(=O)c2c[nH]c3ncc(Cl)cc23)c1F + NCC(=O)Nc1ccc(-n2nc(C(F)(F)F)cc2-c2ccc3c(ccc4ccccc43)c2)cc1 [OSU03012] (first compound 0.4 µM, partner dose 5 µM)	60.8%	43.5%	67.7%	67.8%	99.3%	67.9%	54.7%	88.8%	67.7%	72.9%
C=C(c1ccc(C(=O)O)cc1)c1cc2c(cc1C)C(C)(C)CCC2(C)C [Bexarotene] + Cc1nc(Nc2ncc(C(=O)Nc3c(C)cccc3Cl)s2)cc(N2CCN(CCO)CC2)n1 [dasatanib] (first compound 10 µM, partner dose 0.02 µM)	72.2%	70.3%	68%	97.3%	36.6%	62.9%	47.9%	91.1%	44.3%	54.8%
CS(=O)(=O)c1ccc(C(=O)Nc2ccc(Cl)c(-c3ccccn3)c2)c(Cl)c1 [vismodegib] + CCc1ccc(CCOc2ccc(CC3SC(=O)NC3=O)cc2)nc1 [pioglitazone] (first compound 5 µM, partner dose 10 µM)	84%	86.9%	83.2%	104%	87.8%	77.1%	103%	89.5%	73%	89.6%
CN(c1ncccc1CNc1nc(Nc2ccc3c(c2)CC(=O)N3)ncc1C(F)(F)F)S(C)(=O)=O + C=CCn1c(=O)c2cnc(Nc3ccc(N4CCN(C)CC4)cc3)nc2n1-c1cccc(C(C)(C)O)n1 [MK1775] (first compound 0.4 µM, partner dose 0.1 µM)	89.7%	101%	88.1%	71.5%	76.2%	98.1%	91.5%	101%	55.9%	70.3%
NC1(c2ccc(-c3nc4ccn5c(=O)[nH]nc5c4cc3-c3ccccc3)cc2)CCC1 + COCC[n+]1c2c(n(Cc3cnccn3)c1C)C(=O)c1ccccc1C2=O [YM155] (first compound 2 µM, partner dose 0.002 µM)	58.6%	31%	40%	10.8%	47.7%	68.4%	25.9%	19.6%	64.3%	81.2%
CS(=O)(=O)c1ccc(C(=O)Nc2ccc(Cl)c(-c3ccccn3)c2)c(Cl)c1 [vismodegib] + O=C(O)[C@@H]1[O][Sb](=[O])([O][Sb]2(=[O])[O][C@H]([C@H](O)CO)[C@H](O)[C@H](C(=O)O)[O]2)[O][C@H]([C@H](O)CO)[C@@H]1O [stibogluconate] (first compound 5 µM, partner dose 10 µM)	95.8%	83.7%	109%	106%	74%	109%	109%	80%	106%	119%
NC1(c2ccc(-c3nc4ccn5c(=O)[nH]nc5c4cc3-c3ccccc3)cc2)CCC1 + COC(=O)c1sccc1S(=O)(=O)Nc1ccc(Nc2ccccc2)cc1OC [GSK0660] (first compound 2 µM, partner dose 5 µM)	71.7%	89.4%	87.9%	85.2%	89.9%	70%	84.5%	70.8%	71.3%	90.9%
CS(=O)(=O)c1ccc(C(=O)Nc2ccc(Cl)c(-c3ccccn3)c2)c(Cl)c1 [vismodegib] + CCN(CC)CCCCNc1ncc2cc(-c3cc(OC)cc(OC)c3)c(NC(=O)NC(C)(C)C)nc2n1 [PD173074] (first compound 5 µM, partner dose 0.5 µM)	110%	115%	141%	113%	183%	109%	107%	99.8%	114%	134%
NC1(c2ccc(-c3nc4ccn5c(=O)[nH]nc5c4cc3-c3ccccc3)cc2)CCC1 + OCc1c[nH]c2ccccc12 [Indole-3-carbinol] (first compound 2 µM, partner dose 4 µM)	94.1%	92.5%	87.9%	64.2%	104%	88.5%	89.3%	75.6%	69.9%	78.6%
C=C(c1ccc(C(=O)O)cc1)c1cc2c(cc1C)C(C)(C)CCC2(C)C [Bexarotene] + Nc1nc(F)nc2c1ncn2[C@@H]1O[C@H](CO)[C@@H](O)[C@@H]1O [fludarabine] (first compound 10 µM, partner dose 1 µM)	59.5%	57.9%	66.3%	80.9%	131%	66%	74.8%	82.7%	56.6%	101%
CCCS(=O)(=O)Nc1ccc(F)c(C(=O)c2c[nH]c3ncc(Cl)cc23)c1F + Cc1cc([N+](=O)[O-])ccc1NS(=O)(=O)c1cc(Cl)ccc1Cl [FH535] (first compound 0.4 µM, partner dose 5 µM)	49.1%	43.5%	57%	94%	91.3%	52.5%	71.8%	81.2%	119%	68.1%
C=C(c1ccc(C(=O)O)cc1)c1cc2c(cc1C)C(C)(C)CCC2(C)C [Bexarotene] + CCCS(=O)(=O)Nc1ccc(F)c(C(=O)c2c[nH]c3ncc(Cl)cc23)c1F [PLX4720] (first compound 10 µM, partner dose 0.4 µM)	70.7%	68.7%	76.6%	83%	103%	62.4%	37.4%	92.1%	80%	69.5%
C=C(c1ccc(C(=O)O)cc1)c1cc2c(cc1C)C(C)(C)CCC2(C)C [Bexarotene] + C[C@]1(c2nc3c(C(N)=O)cccc3[nH]2)CCCN1 [Veliparib] (first compound 10 µM, partner dose 7 µM)	67.2%	78.9%	100%	88.4%	94.9%	82.8%	88.1%	79%	82.9%	90.9%
